We go through 115 sequences from the BET-seq Pho4 binding data (Le et al. 2018).

Some of the results follow. These are noisy estimates, calculated here from bound and input reads.

The experiment concerns the target T1, Pho4 (S. cerevisiae) (UniProt P07270).
T1 sequence: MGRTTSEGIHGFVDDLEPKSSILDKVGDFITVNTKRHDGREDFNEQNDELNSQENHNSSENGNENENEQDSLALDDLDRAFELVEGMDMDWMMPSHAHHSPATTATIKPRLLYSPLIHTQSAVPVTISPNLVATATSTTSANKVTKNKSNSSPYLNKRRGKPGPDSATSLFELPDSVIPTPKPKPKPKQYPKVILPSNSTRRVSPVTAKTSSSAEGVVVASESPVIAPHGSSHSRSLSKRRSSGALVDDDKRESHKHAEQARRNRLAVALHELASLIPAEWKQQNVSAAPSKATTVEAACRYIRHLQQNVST
In words: relative binding free energy (BET-seq); higher = weaker binding. The following applies: reference: library average.
On to TGTGCCACGTGTCGTA, for which the “relative binding free energy” value was -0.09 kcal/mol.

With TATATCACGTGTGTAG, the “relative binding free energy” value worked out at 0.13 kcal/mol.

As for AGTGTCACGTGGGAGT, the “relative binding free energy” value was -0.11 kcal/mol.

Consider TCTTTCACGTGTTTGT, for which the “relative binding free energy” value was 0.28 kcal/mol.

With GTTAGCACGTGAAGTC, the “relative binding free energy” value came to 0.38 kcal/mol.

Consider TAAGGCACGTGTGGTC, for which the “relative binding free energy” value came out at 0.06 kcal/mol.

Regarding GTGAACACGTGTTTGT, the “relative binding free energy” value was 0.09 kcal/mol.

On to ATAAGCACGTGTTCGT, for which the “relative binding free energy” value is -0.13 kcal/mol.

Regarding GTGTTCACGTGTGGAA, the “relative binding free energy” value was 0.35 kcal/mol.

Consider TTGAGCACGTGGGTAG, for which the “relative binding free energy” value is -0.08 kcal/mol.

On to TTATACACGTGACTTT, for which the “relative binding free energy” value came to 0.22 kcal/mol.

As to GTTTTCACGTGTCATT, the “relative binding free energy” value was 0.29 kcal/mol.

GAGTTCACGTGCGCGG: the “relative binding free energy” value was determined as 0.2 kcal/mol.

As to ATGGCCACGTGGGGTT, the “relative binding free energy” value is -0.26 kcal/mol.

As for AGCGGCACGTGAGGCG, the “relative binding free energy” value was found to be 0.09 kcal/mol.

For the sequence CATGGCACGTGCTGGT, the “relative binding free energy” value was -0.16 kcal/mol.

For the sequence TATATCACGTGTGTTT, the “relative binding free energy” value came out at 0.21 kcal/mol.

Turning to ATGAGCACGTGTCTGT, the “relative binding free energy” value is -0.2 kcal/mol.

As for ATGGTCACGTGCGGGT, the “relative binding free energy” value is 0.09 kcal/mol.

Consider CATATCACGTGGTGGT, for which the “relative binding free energy” value was -0.04 kcal/mol.

For GTCCTCACGTGGGGTT, the “relative binding free energy” value came out at 0.14 kcal/mol.

With AAGGTCACGTGGTCTT, the “relative binding free energy” value is 0.13 kcal/mol.

Regarding ATATTCACGTGGACGT, the “relative binding free energy” value is 0.22 kcal/mol.

For the sequence GTAGGCACGTGTGTGG, the “relative binding free energy” value turned out to be 0 kcal/mol.

On to GTTTACACGTGAGGGG, for which the “relative binding free energy” value is 0.39 kcal/mol.

As to TGTGACACGTGCGCGT, the “relative binding free energy” value is -0.15 kcal/mol.

For AGAAGCACGTGATTGG, the “relative binding free energy” value stood at 0.09 kcal/mol.

As to TGGGTCACGTGGGTAT, the “relative binding free energy” value came out at 0.03 kcal/mol.

On to GGGGGCACGTGCTGGA, for which the “relative binding free energy” value was -0.19 kcal/mol.

With ACGGACACGTGGTTTA, the “relative binding free energy” value was 0.15 kcal/mol.

Turning to GGTAACACGTGTTAAG, the “relative binding free energy” value is -0.03 kcal/mol.

GGGTGCACGTGAGCGC: the “relative binding free energy” value came to 0.11 kcal/mol.

GGAGACACGTGTTAAG: the “relative binding free energy” value was 0.16 kcal/mol.

Regarding GTGCGCACGTGGTCGT, the “relative binding free energy” value was -0.1 kcal/mol.

With ATTTTCACGTGTACGC, the “relative binding free energy” value turned out to be 0.4 kcal/mol.

With GGTGTCACGTGGGGAG, the “relative binding free energy” value was -0.02 kcal/mol.

With GTGTTCACGTGCGAAT, the “relative binding free energy” value came to 0.26 kcal/mol.

As for AATTGCACGTGTTACA, the “relative binding free energy” value was 0.09 kcal/mol.

For GATTACACGTGGCAGG, the “relative binding free energy” value came out at 0.24 kcal/mol.

Take TATCTCACGTGTTAGT: the “relative binding free energy” value turned out to be 0.21 kcal/mol.

As for TGATACACGTGGTTGG, the “relative binding free energy” value was determined as 0.05 kcal/mol.

In the case of ATTTCCACGTGCTGGT, the “relative binding free energy” value was found to be 0.08 kcal/mol.

Regarding GTTCTCACGTGTGTTA, the “relative binding free energy” value came to 0.17 kcal/mol.

As for TTTAGCACGTGTAAAC, the “relative binding free energy” value came out at 0.33 kcal/mol.

With TGGTTCACGTGGTAGC, the “relative binding free energy” value came to 0.34 kcal/mol.

GGGGTCACGTGTTGGG: the “relative binding free energy” value amounted to 0.25 kcal/mol.

Consider TAGTGCACGTGCATGA, for which the “relative binding free energy” value was -0.14 kcal/mol.

Consider TTAGGCACGTGACTTT, for which the “relative binding free energy” value is -0.07 kcal/mol.

GCGGGCACGTGTGTTA: the “relative binding free energy” value was -0.06 kcal/mol.

Consider TTGAACACGTGGGGGA, for which the “relative binding free energy” value is -0.01 kcal/mol.

As for GATGGCACGTGGTACT, the “relative binding free energy” value is -0.1 kcal/mol.

For GTGGACACGTGAGGTT, the “relative binding free energy” value was determined as 0.29 kcal/mol.

As to TAGTTCACGTGGGTTG, the “relative binding free energy” value is 0.26 kcal/mol.

As for GGGGACACGTGAATGA, the “relative binding free energy” value came out at 0.4 kcal/mol.

On to TGGTGCACGTGAGTGC, for which the “relative binding free energy” value was determined as 0.14 kcal/mol.

As to AGCATCACGTGTGGTT, the “relative binding free energy” value was 0 kcal/mol.

Regarding ATTGTCACGTGGATCT, the “relative binding free energy” value is 0.12 kcal/mol.

In the case of TAGGCCACGTGGTCTG, the “relative binding free energy” value was -0.21 kcal/mol.

In the case of ATGTGCACGTGTTCGT, the “relative binding free energy” value was -0.07 kcal/mol.

As to TTATGCACGTGCGGAT, the “relative binding free energy” value was -0.12 kcal/mol.

With GCGTACACGTGGGTGT, the “relative binding free energy” value turned out to be 0 kcal/mol.

GGTAGCACGTGTCCGG: the “relative binding free energy” value is -0.05 kcal/mol.

As for TTCGGCACGTGCCGGG, the “relative binding free energy” value is -0.24 kcal/mol.

With AGATGCACGTGGTAGC, the “relative binding free energy” value was 0.01 kcal/mol.

In the case of TGTCGCACGTGAGGTA, the “relative binding free energy” value worked out at 0.12 kcal/mol.

As to GGGAGCACGTGGAAAG, the “relative binding free energy” value is -0.01 kcal/mol.

GGCGACACGTGGCGTT: the “relative binding free energy” value is 0.16 kcal/mol.

As for TGTTCCACGTGATAAT, the “relative binding free energy” value stood at 0.35 kcal/mol.

With GAGTTCACGTGTTCGG, the “relative binding free energy” value is 0.46 kcal/mol.

On to ATAGTCACGTGAGAGA, for which the “relative binding free energy” value came out at 0.25 kcal/mol.

In the case of TGTTGCACGTGGATAT, the “relative binding free energy” value was -0.02 kcal/mol.

Take TGTATCACGTGTTGGC: the “relative binding free energy” value came out at 0.16 kcal/mol.

On to TGTGTCACGTGTTGAT, for which the “relative binding free energy” value was 0.01 kcal/mol.

For the sequence GAGGTCACGTGTTTTA, the “relative binding free energy” value was determined as 0.3 kcal/mol.

Consider AAATGCACGTGATTGT, for which the “relative binding free energy” value was 0.12 kcal/mol.

For GTTAACACGTGTTAGC, the “relative binding free energy” value amounted to 0.13 kcal/mol.

For TTAGGCACGTGTACTG, the “relative binding free energy” value is -0.11 kcal/mol.

In the case of AGGATCACGTGAGGGC, the “relative binding free energy” value came to 0.31 kcal/mol.

TATTGCACGTGATGAA: the “relative binding free energy” value amounted to 0.11 kcal/mol.

For ATTGACACGTGGTTTA, the “relative binding free energy” value is -0.07 kcal/mol.

Turning to TTAGTCACGTGTTAAA, the “relative binding free energy” value was determined as 0.12 kcal/mol.

For CGTTACACGTGTGCGT, the “relative binding free energy” value came out at 0.08 kcal/mol.

Take TAAATCACGTGGCAGT: the “relative binding free energy” value worked out at 0.14 kcal/mol.

For AATCTCACGTGGGGTA, the “relative binding free energy” value is 0.12 kcal/mol.

Consider AATGTCACGTGGGGGA, for which the “relative binding free energy” value was -0.02 kcal/mol.

For TTAGTCACGTGTAACT, the “relative binding free energy” value turned out to be 0.12 kcal/mol.

With TAGGACACGTGAAAGG, the “relative binding free energy” value amounted to 0.3 kcal/mol.

Regarding TGCAGCACGTGCGGTG, the “relative binding free energy” value is -0.13 kcal/mol.

Turning to TGGAACACGTGATGAG, the “relative binding free energy” value was 0.21 kcal/mol.

ATTTTCACGTGGTATT: the “relative binding free energy” value turned out to be 0.33 kcal/mol.

For the sequence GTATTCACGTGGAAGA, the “relative binding free energy” value was determined as 0.32 kcal/mol.

Turning to GATGGCACGTGGTGTA, the “relative binding free energy” value is -0.09 kcal/mol.

TCTTTCACGTGGTCTG: the “relative binding free energy” value was 0.17 kcal/mol.

On to GAATGCACGTGGTGCG, for which the “relative binding free energy” value came to 0.02 kcal/mol.

GTATTCACGTGTGCGA: the “relative binding free energy” value came to 0.24 kcal/mol.

As to GAAAGCACGTGACGGG, the “relative binding free energy” value stood at 0.18 kcal/mol.

For CATATCACGTGGAGGT, the “relative binding free energy” value worked out at 0.2 kcal/mol.

Consider GGTTTCACGTGCAAGG, for which the “relative binding free energy” value amounted to 0.15 kcal/mol.

TGGTACACGTGATTAG: the “relative binding free energy” value was 0.15 kcal/mol.

Regarding GATAGCACGTGGATTG, the “relative binding free energy” value is -0.09 kcal/mol.

On to AATAGCACGTGCTGTT, for which the “relative binding free energy” value was -0.19 kcal/mol.

Regarding ATGGGCACGTGGAAGT, the “relative binding free energy” value came to 0.04 kcal/mol.

For TCGATCACGTGGTTTT, the “relative binding free energy” value came out at 0.16 kcal/mol.

Consider GGATGCACGTGTTTGT, for which the “relative binding free energy” value amounted to 0.06 kcal/mol.

In the case of GGGTACACGTGTTAAT, the “relative binding free energy” value came to 0.03 kcal/mol.

Consider TGGTACACGTGTGTGG, for which the “relative binding free energy” value is 0.15 kcal/mol.

TTGTGCACGTGGCGGC: the “relative binding free energy” value is -0.1 kcal/mol.

Consider TGGTGCACGTGCCGGG, for which the “relative binding free energy” value is -0.23 kcal/mol.

In the case of TAATTCACGTGTGTTT, the “relative binding free energy” value came out at 0.24 kcal/mol.

Regarding TGGCACACGTGTTGGT, the “relative binding free energy” value amounted to 0.17 kcal/mol.

Turning to TTCTGCACGTGGAAAT, the “relative binding free energy” value came to 0.2 kcal/mol.

For the sequence AAATACACGTGAGGGG, the “relative binding free energy” value amounted to 0.34 kcal/mol.

With TAGAGCACGTGGATGA, the “relative binding free energy” value was -0.07 kcal/mol.

On to ATGGGCACGTGGTCAG, for which the “relative binding free energy” value was -0.26 kcal/mol.

For the sequence GGGTTCACGTGCTTGA, the “relative binding free energy” value is 0.34 kcal/mol.
